RUNX1 binding intensity data for 80 sequences are collected here from the supplement of paper PMC10681739.

Whole data set: some 4,000 sequences, median “arbitrary fluorescence units” near 830, cut for the highest 2% near 6,500. Most of the strongest results are missing from this list.
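Further: Full-length recombinant human RUNX1 bound to double-stranded DNA microarray spots, detected with an Alexa488-labelled secondary antibody after the anti-RUNX1 primary, read as scanned spot fluorescence.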

In this experiment the target is RUNX1 (UniProt Q01196). Nature of the experiment: RUNX1 binding intensity (PBM fluorescence), RUNX1 alone (arbitrary fluorescence units); higher = stronger binding. To be noted: RUNX1 concentration 2 nM; ETS1 concentration 0 nM. The method, then: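 gcPBM on 36-bp genomic-derived probes (partner site mutated) containing one RUNX1 site and no ETS1 site. Recombinant human RUNX1 (2 nM) was incubated alone or with ETS1 (25 nM) and detected by anti-RUNX1 antibody fluorescence. Values are medians over 4 replicate spots (not normalised). The probes sit in constant array flanks that are not printed.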
UniProt Q01196, sequence (Q01196 whole entry): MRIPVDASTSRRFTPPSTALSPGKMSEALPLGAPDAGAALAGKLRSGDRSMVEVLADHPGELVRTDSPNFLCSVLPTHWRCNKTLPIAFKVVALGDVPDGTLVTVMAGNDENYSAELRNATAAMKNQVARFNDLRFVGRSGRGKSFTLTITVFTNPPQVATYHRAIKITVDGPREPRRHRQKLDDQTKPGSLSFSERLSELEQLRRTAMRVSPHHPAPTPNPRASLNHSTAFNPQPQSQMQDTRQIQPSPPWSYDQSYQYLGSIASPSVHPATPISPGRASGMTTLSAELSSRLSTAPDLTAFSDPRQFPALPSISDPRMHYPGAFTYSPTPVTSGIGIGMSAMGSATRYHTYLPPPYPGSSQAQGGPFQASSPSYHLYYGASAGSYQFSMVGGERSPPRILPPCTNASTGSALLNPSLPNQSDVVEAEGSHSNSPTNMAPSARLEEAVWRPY
The sequence GTTCAGCAGGCAGTGGATGTGGATGTGTGGTTGCCA had an RUNX1 binding intensity of 777.
Turning to GTCACCGCGCTCCGCTGAATCCGCGTTGCCGGGATT, the RUNX1 binding intensity worked out at 841.
The value for TTCCAGACCACAAGAGCTTCCACCTCCTTTCTCTTG was 3320; that for CCTCAGCCTGAGTCTGAGAGCTGCAGCCCGCACAGA was 745.
The value for GGCACAGGCCGCAGGGCTGAGCCTGAAGCTCCTGCC was 685; that for TTGGTGACCTCTTCATGTCCGCTGTGGTGTTGTTAC was 794; that for ACTACAACTGCCGACTTGCATCACTGCGGTGGCGCT was 923.
TCCGCTTCTGTGGTCTGATCTTGCTGGGGCTGAACC came in with an RUNX1 binding intensity of 1090.
CCCTGCCATTGCCTGCCCAATACCGCGTATGCAACT: the RUNX1 binding intensity stood at 1120.
TGCGCTCTCATACGGGTCCTGCGGGCGCTGGCGGAG: the RUNX1 binding intensity turned out to be 684.
The value for GCCCACCCCCGCATTCTCGCCACCTCCTCCCCGGGA was 1400.
Sequence TGCGCCTGAAAGCAACGGCAAGGGCCGCAGCCAGCA gave an RUNX1 binding intensity of 701.
Then TTCTGAGGAGGTCCTTGGCTGAGGTAGGGCCGCAGA, with 694.
Then GAGTACAGCAAATGCAAAGTAAAACCACAGTGAGAT, with 933.
Then TTCAACAAGATATTGCTTTGTTACCACAGGCCCTTT, with 903.
With TGTGACCGCATCATGGGTAGACTCAATTCCTCTTGT, the RUNX1 binding intensity turned out to be 1890.
Then AATTAAATTGTGGTAGATAGTAAAAGGACGTAGTTA, with 943; and AGGAGTGAGGAATTGAGGCTGGCCTTGTGGGTGTGG, with 721.
The value for CTGAGCCGCAGACATGAAACCATGGATTCCTTCACA was 839; that for ACATGAGGAGGGGGTAAGTGGATTTCCCTACCACAA was 967; that for GGCCCCGAGCGCGCCGCAGACCGGAGGCGGGGAGTG was 3840.
Then ACTGCTTCTTGTGGTGAGGGACAGTAAACCAAGAGG, with 1050; and TTTAAGGGCTGAAAGGCTTTAGCCGCAAAATGGCTT, with 742.
As for AAGAGCATGCACCCGCAGAGACAGGCAGTGGCGGCT, the RUNX1 binding intensity was 816.
Regarding CAGAAAGAGGACATGATGCGAGTCCACACCGCAGGC, the RUNX1 binding intensity came out at 755.
Sequence GAACTACGTTTGCCGGCATGCACTGCGGGCCGCCGG yielded an RUNX1 binding intensity of 676.
Then CCAACACGGAGACAAAAAATATCTCTCTACCACACT, with 1120.
Then CTCCCAACTGCCGCGACGCAGGGAGCGCCCACAAAG, with 999; and CGTCAATTCCCACGCGACTGCCTGCGGGAAACATGG, with 826.
In the case of ACTGTGGTCAGGGCTGCCCTGAGTCATGCTGCGGAG, the RUNX1 binding intensity is 1080.
GCTTGTCTTACGGTTTCGTCGCCGCCGCAGGCGCAC gave an RUNX1 binding intensity of 854.
The value for TGCAACGCTGGAATCGCGCAAACCGCCGGTGCACGT was 689.
Then GTGAGCTGTGGTGTGCAGCCCACCATCTCCTTTTCT, with 810; and CCGCCACCGCAGCCTCAGCAGCAGTTGCCGTAAGAA, with 1480; and TCAATGACAGCAAGTTTTTAAACCACATACGGCTAA, with 914.
The value for ATCGGCGGTCCCGCAGGTCCCGTATGTCGCGGACAG was 713.
For the sequence CCTGCCTTGCGTATTCCAGGCAGAACCACAGAGAGG, the RUNX1 binding intensity is 864.
The value for GCGGACCGCACTCCCGGTCTCTGCCATGAAGAAGTA was 1000; that for AGGGGCAGACCACAGCACCACCGAAAGTAGGGCTCA was 771; that for TGGGGCCTTGTTACCACAGCACTTCATGTTTGCTTT was 928.
The value for GTGGGGCAGGGTGTGCTTGCCTGGCTGCGGTTGGAC was 971; that for ATCAGAGCGGAGATCTCAGTCTTGTGTGGGGACCTG was 710; that for ACCGTTAACTCAACCACTAACATTTGCTGTTCTGGT was 1070.
Then GGACACATGTGGTGTTCTGCATGATGCAAAAGACCT, with 682.
Consider CCCCCGTACGGTTACAGAGGACACTTAAGTGGTTTG, for which the RUNX1 binding intensity was 800.
The value for CGTTTACTGTGGCTGCAGCTCTCCCCACCCACACAC was 979; that for CGACGTCACTTTCGCTGGTTCAAGCACCGCGAGACT was 656; that for GCCAACATGAAGCTGGAAGCCAACCGCACTGTGTGC was 1070.
The value for CGTCCTGTCTGTGGCCTAGAAGCTTGCTGCCCCAGC was 882.
The value for AGCGGCTTGCTGCTGGGCTTTTGCACTCCCCACAAC was 767.
With GGGCTGGCTGCTGCGGCAGCATTTCTTGACTTCTTC, the RUNX1 binding intensity was found to be 679.
Then AGGTTAAGTGTGGTTTCTCTTCATGATTCCACCCTG, with 1080; and CTCCCCAGCCGCAAACCCCTCCTTACGGCTTTGCGC, with 1690.
Then TTTGCGGCGCTAGTGCTCTGGTCACCGAAAGTCCCT, with 724; and AGGCCGCCTACAGGGTGTTGGAAACCACAGGGCCCG, with 802.
The value for GGGGAACTCACCGCGCACTAAGAGCTGAACGTGAAC was 699; that for GGCTGCGGCGGCTGGGGTGTTCCTCCGACTTTCGGA was 881; that for TTGTGGTTGAGTTCCCTAGCTGACACCTCCTATATT was 971.
With GACAAGAAACTAGCCACAAACCGGAGACGTTAAACC, the RUNX1 binding intensity was found to be 1050.
The value for CTCCCCAGCATGAGGGTCCCAGGGCTTACCCGCGCC was 790; that for GGAGGCTGTGGTGAGGAAAGAGGAGGTGACACTCCT was 883.
Then CAGCCGCCGACGTCCCCAGTAGTACCGCGCCGCTCC, with 911.
The value for ATAGAAACTACACGAAATACTGTGGTCAGGTTTTGA was 800; that for CCACTGCTTTGTTGCCTCTCCAGACCGCGCATTTTG was 1010.
AGACTAGAGGCGGTTGTGTGAGTCAGAAAGAGGGGC gave an RUNX1 binding intensity of 724.
Then TCACACCCTGTAATGGTTTGCGCATACCACAGTTCT, with 786; and AGCTGAGGTCGCGGTGCAGCAGCAGCAAACGTGATA, with 1010; and AAAGGTGGTTGAGATCTATCCCACACCCTGTCTTTC, with 703.
Then CAAGCCAACATGCTGACAGTTTAGAAACCACAGGAG, with 848.
The value for AGGTTCGTGGCACGAAAGTTTGTGGCAGCAAAGCCT was 864; that for CGGGCCCGATCGCCTTCGCCGCCGCCCGCCCGCAAA was 973; that for GGCACCGGGAGTAGAGCTGCCCCTAGTTGCGGCAGT was 731.
With GTTCTCCTTTCTGTGCCGAGTGTGGTTTGCTATCAA, the RUNX1 binding intensity came to 1550.
Then CCCTTCCCCACCGCAGTCCGCTCCCTGCCCCTCCCG, with 3930; and CCGCTCTTGCTGGAGGTCTCTTGACCGCTCACCCTC, with 912.
The value for CTGTCTGCTTCACGTGGCCAGCCCTGACCGCGGCCC was 857.
Then CCTCTCCATCTTCAGCACCACTGAGGCCGCAGTCTC, with 1410.
Sequence GTGGAAGCCACAGGGAGTGGGCAGCATGTAGCAGAA returned an RUNX1 binding intensity of 789.
Then GGTCCGAAAACGATTCTGGACCTGCGGGTATATCCA, with 767; and AAAACCCAAACCACCCCTCAGGGAGCGTTAAGCAAG, with 786.
